From the supplement of paper PMC10185492
The list shows a part of the results. Values come from read counts of a selection and are noisy.

tested on: SARS-CoV-2 3CLpro (nsp5); experiment: substrate phage enrichment score (protease-eluted vs HEPES control, +1 offset) (ratio); higher = better cleaved substrate; conditions: selection round: 3; protease elution time: 0.5 h
Method: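 Random heptapeptide substrate phage display (M13 pIII fusion, heptapeptide between an N-terminal biotinylated AviTag GLNDIFEAQKIEWHE and pIII; phages immobilised on streptavidin) eluted by cleavage with 50 nM protease in 20 mM HEPES at 37 °C. Selected phages were NGS sequenced, and the enrichment score is (reads in protease sample + 1)/(reads in HEPES blank-selection control + 1).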

| Substance | substrate phage enrichment score |
| --- | --- |
| NSYLNMP | 3.16 |
| WTQENST | > 40 |
| TRSDGET | 4 |
| SWCTVPK | > 42 |
| QATVFCH | 1.46 |
| RRPHVHT | 4.6 |
| HHVNSVD | 3 |
| LPAAHHH | 1 |
| AVGEYIN | 1 |
| MHFQGGS | 0.667 |
| YRTRLQS | > 47 |
| EQVSQLQ | > 28 |
| VWAGAPW | 4.17 |
| YSRCLLQ | > 21 |
| QLPTFVP | > 23 |
| YPAAHHH | 0.964 |
| CSEYKRY | > 98 |
| AAENMIN | > 26 |
| HAKAHKS | 0.609 |
| RSTQQAA | 6.5 |
| QQTLRTQ | 1.2 |
| PVQCHLQ | 5.5 |
| VNFQGGS | 2.62 |

| Substance | substrate phage enrichment score |
| --- | --- |
| DSKQKAN | 6 |
| ASGQSMM | 30 |
| IPHCANG | > 21 |
| PCYAGCT | > 22 |
| LPKLQST | > 44 |
| QSFTHCR | 5.67 |
| PAGSNHV | 6.5 |
| RRWATLQ | > 21 |
| SWSSRTE | 1 |
| DQALKFW | > 40 |
| CTAAHHH | 0.774 |
| DPSKAWR | 3.43 |
| TRGEPQR | > 29 |
| GKAAHHH | 0.457 |
| ANTIKAR | 0.786 |
| GALRCRD | 0.571 |
| GDHNKAQ | 2.36 |
| NDGSVGH | 2.25 |
| YLNSKTP | > 30 |
| EPTQCRA | 2.28 |
| THPVASD | > 45 |
| SSAREGC | 1.33 |
| SPGSKTL | > 33 |

| Substance | substrate phage enrichment score |
| --- | --- |
| IKLQSYD | > 42 |
| SPKNHMQ | > 21 |
| VNKEIVG | 1 |
| TKKTPTY | 4.75 |
| RASQVTR | 4.6 |
| LNPHLQS | > 34 |
| QSWGISQ | > 24 |
| VAKGSQD | > 26 |
| HTAAHHH | 1.77 |
| TAAAHHH | 1.06 |
| TRWCSIA | > 21 |
| ETGILQS | > 28 |
| SILECRG | > 31 |
| NGAAHHH | 1.69 |
| RQTYIYG | > 417 |
| NRGAKLQ | > 30 |
| VANLQAG | 74 |
| RDTRPVF | > 25 |
| LCTLQGG | > 28 |
| RADAILQ | > 201 |
| TSLTPRQ | 5.15 |
| QQTTKRG | 1.29 |
| GSPAAHH | 0.5 |

| Substance | substrate phage enrichment score |
| --- | --- |
| HRCKAGF | 1.75 |
| AVDQPKQ | 1.9 |
| QTCLQGG | > 32 |
| CGAAHHH | 0.5 |
| LIDSAQR | > 27 |
| RQDSRFG | > 21 |
| QTAAHHH | 0.857 |
| SHAAHHH | 0.591 |
| LKDNSQQ | > 26 |
| AAQTFPA | 0.312 |
| LYFRGGS | 0.724 |
| TAAHHHH | 1.11 |
| SDTARGS | > 23 |
| SAAEHHH | 0.684 |
| WNHRDTR | > 30 |
| ETHGPFG | > 105 |
| RKQTRLQ | > 122 |
| SSPQKWP | 2.9 |
| SSLTGIG | 17.5 |
| RQPVGIP | > 23 |
| MSIHATP | 1 |
| ASTGYKS | 12 |
| TARLQSA | > 37 |

| Substance | substrate phage enrichment score |
| --- | --- |
| ELSGRKH | 1 |
| QASRKSD | > 23 |
| PPGRATC | 2.14 |
| CTENRTR | 0.692 |
| VVKTGVH | > 57 |
| ARPSQLM | > 21 |
| DTLSELQ | > 28 |
| SGVPSAR | 18.5 |
| RQESVDP | > 28 |
| CASYNSS | > 22 |
| AAAHHNH | 1 |
| QQYFQGG | 0.636 |
| GTTRLQA | 156 |
| YASSSGR | 1.09 |
| SAAAHQH | 1.13 |
| YPQTRLQ | > 47 |
| AADLNNR | 1 |
| KATKPRP | 4.17 |
| QCFQGGS | 4.5 |
| GGAAAHH | 0.571 |
| HTDYVTE | 11 |
| RVPAKLQ | > 42 |
| RRRCSLM | 126 |

| Substance | substrate phage enrichment score |
| --- | --- |
| RKSSKVC | > 21 |
| AAAQHHH | 1.17 |
| TVGGLIC | > 21 |
| CKAAHHH | 2.07 |
| ALSPPGP | > 21 |
| QRSSTPA | 0.389 |
| CRLSTRD | 2.62 |
| NRHLARP | > 34 |
| GIAAAHH | 0.5 |
| LQSFPAA | > 21 |
| AYDSEFS | 2.29 |
| LCEQQML | 2.43 |
| KQRTTSP | > 28 |
| SAAPQQH | 2.14 |
| LSSEQLL | 0.714 |
| KPKPCLH | 1.88 |
| MKPTVPE | > 50 |
| CNHRELL | 0.294 |
| RACGNRS | 1.75 |
| LNVSELK | 1.2 |
| VELQSDR | > 45 |
| QTSRWPT | 11 |
| RSCKEQT | > 29 |

| Substance | substrate phage enrichment score |
| --- | --- |
| VKLRNPN | 1.05 |
| VAQLQAR | > 21 |
| ITERDMR | 1.08 |
| DNFLEMN | 6.6 |
| NVLEPTE | 1.36 |
| SGPCKLQ | > 171 |
| EPQWSNP | 4.86 |
| CGSAAAH | 1.67 |
| VESSKLQ | > 23 |
| REQTRAL | 12 |
| KAMQGTT | 12.5 |
| TGVLQRK | 4.13 |
| KSAAHHH | 2.91 |
| EKVPRLQ | > 104 |
| ALRDAPL | > 28 |
| ASCATPV | 2.57 |
| RAPACQD | 1.22 |
| KAAHHHH | 0.629 |
| TGSGAAE | 1.18 |
| SDGTQEQ | 2.83 |
| QHVTSMP | 0.211 |
| NRTPYIM | 20.5 |
| SPSCSTQ | 1.09 |

| Substance | substrate phage enrichment score |
| --- | --- |
| PCHGNYR | > 45 |
| IQGGSAA | 1.65 |
| RHMTTDS | > 55 |
| RNSRLQA | > 70 |
| LGMCTLQ | > 191 |
| GVWVQCH | 0.3 |
| ALCPRAD | 1.14 |
| LATDAGW | 12 |
| ACGPVAS | > 21 |
| TPSQRCL | 8.33 |
| GGSAAAH | 0.772 |
| TGTVMSP | > 32 |
| VVRPHII | 1.05 |
| DGTVLQS | > 23 |
| GMAAHHH | 1.06 |
| CREASAQ | 5 |
| QLPMLQA | > 113 |
| LCPTKHT | 2.33 |
| VSAAAHH | 0.711 |
| AEAAHHH | 0.889 |
| EARTNHR | 2.2 |
| PSTVIPG | 3.14 |
| TCTTPMS | 4.6 |
